# Measured values published in the supplement of paper PMC8728848.
# Some of the results follow.
# B1: Eosinophil cationic protein (ECP) (Homo sapiens), P12724 (protein)
# chain: MVPKLFTSQICLLLLLGLMGVEGSLHARPPQFTRAQWFAIQHISLNPPRCTIAMRAINNYRWRCKNQNTFLRTTFANVVNVCGNQSIRCPHNRTLNNCHRSRFRVPLLHCDLINPGAQNISNCTYADRPGRRFYVVACDNRDPRDSPRYPVVPVHLDTTI
# Tests used:
# Experiment in all cases: glycan array binding signal (z-score within array); higher = stronger binding
# Details in all cases: glycan notation: IUPAC condensed, linker removed
# Fuc(a1-2)Gal = target: Fuc(a1-2)Gal
# Summary of the method: (§1)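 Glycan array data came from 3228 arrays in the Consortium for Functional Glycomics database, and only arrays with an available protein sequence were kept. Glycan names were put into IUPAC-condensed notation, and columns mapping to the same glycan were averaged. The binding signal is a within-array Z-score, averaged across arrays of one protein sequence run at different concentrations or buffers and across linkers. A negative Z-score can be read as non-binding.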
# Fuc(a1-2)Gal(b1-3)GalNAc = target: Fuc(a1-2)Gal(b1-3)GalNAc
# Summary of the method: as §1
# [1] = target: Fuc(a1-2)Gal(b1-3)GalNAc(a1-3)[Fuc(a1-2)]Gal(b1-4)Glc
# Summary of the method: as §1
# [2] = target: Fuc(a1-2)Gal(b1-3)GalNAc(a1-3)[Fuc(a1-2)]Gal(b1-4)GlcNAc
# Summary of the method: as §1
# [3] = target: Fuc(a1-2)Gal(b1-3)GalNAc(b1-3)Gal
# Summary of the method: as §1
# [4] = target: Fuc(a1-2)Gal(b1-3)GalNAc(b1-3)Gal(a1-4)Gal(b1-4)Glc
# Summary of the method: as §1
# [5] = target: Fuc(a1-2)Gal(b1-3)GalNAc(b1-4)[Neu5Ac(a2-3)]Gal(b1-4)Glc
# Summary of the method: as §1
# Fuc(a1-2)Gal(b1-3)GlcNAc = target: Fuc(a1-2)Gal(b1-3)GlcNAc
# Summary of the method: as §1
# [6] = target: Fuc(a1-2)Gal(b1-3)GlcNAc(b1-2)Man(a1-3)[Fuc(a1-2)Gal(b1-3)GlcNAc(b1-2)Man(a1-6)]Man(b1-4)GlcNAc(b1-4)GlcNAc
# Summary of the method: as §1
# [7] = target: Fuc(a1-2)Gal(b1-3)GlcNAc(b1-2)Man(a1-3)[Fuc(a1-2)Gal(b1-3)GlcNAc(b1-2)Man(a1-6)]Man(b1-4)GlcNAc(b1-4)[Fuc(a1-6)]GlcNAc
# Summary of the method: as §1
# [8] = target: Fuc(a1-2)Gal(b1-3)GlcNAc(b1-3)Gal(b1-4)Glc
# Summary of the method: as §1
# [9] = target: Fuc(a1-2)Gal(b1-3)GlcNAc(b1-3)GalNAc
# Summary of the method: as §1
# [10] = target: Fuc(a1-2)Gal(b1-3)GlcNAc(b1-3)[Fuc(a1-3)[Gal(b1-4)]GlcNAc(b1-6)]Gal(b1-4)Glc
# Summary of the method: as §1
# [11] = target: Fuc(a1-2)Gal(b1-3)GlcNAc(b1-3)[Gal(b1-4)GlcNAc(b1-6)]Gal(b1-4)Glc
# Summary of the method: as §1
# [12] = target: Fuc(a1-2)Gal(b1-3)GlcNAc(b1-3)[Neu5Ac(a2-6)Gal(b1-4)GlcNAc(b1-6)]Gal(b1-4)Glc
# Summary of the method: as §1
# [13] = target: Fuc(a1-2)Gal(b1-3)[Fuc(a1-4)]GlcNAc
# Summary of the method: as §1
# [14] = target: Fuc(a1-2)Gal(b1-3)[Fuc(a1-4)]GlcNAc(b1-2)Man(a1-3)[Fuc(a1-2)Gal(b1-3)[Fuc(a1-4)]GlcNAc(b1-2)Man(a1-6)]Man(b1-4)GlcNAc(b1-4)GlcNAc
# Summary of the method: as §1
# [15] = target: Fuc(a1-2)Gal(b1-3)[Fuc(a1-4)]GlcNAc(b1-3)[Fuc(a1-3)[Gal(b1-4)]GlcNAc(b1-6)]Gal(b1-4)Glc
# Summary of the method: as §1
# [16] = target: Fuc(a1-2)Gal(b1-3)[Fuc(a1-4)]GlcNAc(b1-3)[Gal(b1-4)GlcNAc(b1-6)]Gal(b1-4)Glc
# Summary of the method: as §1
# Fuc(a1-2)Gal(b1-4)Glc = target: Fuc(a1-2)Gal(b1-4)Glc
# Summary of the method: as §1
# Fuc(a1-2)Gal(b1-4)Glc6S = target: Fuc(a1-2)Gal(b1-4)Glc6S
# Summary of the method: as §1
# Fuc(a1-2)Gal(b1-4)GlcNAc = target: Fuc(a1-2)Gal(b1-4)GlcNAc
# Summary of the method: as §1
# [17] = target: Fuc(a1-2)Gal(b1-4)GlcNAc(b1-2)Man(a1-3)[Fuc(a1-2)Gal(b1-4)GlcNAc(b1-2)Man(a1-6)]Man(b1-4)GlcNAc(b1-4)GlcNAc
# Summary of the method: as §1
# [18] = target: Fuc(a1-2)Gal(b1-4)GlcNAc(b1-2)Man(a1-3)[Fuc(a1-2)Gal(b1-4)GlcNAc(b1-2)Man(a1-6)]Man(b1-4)GlcNAc(b1-4)[Fuc(a1-6)]GlcNAc
# Summary of the method: as §1
# [19] = target: Fuc(a1-2)Gal(b1-4)GlcNAc(b1-2)[Fuc(a1-2)Gal(b1-4)GlcNAc(b1-4)]Man(a1-3)[Fuc(a1-2)Gal(b1-4)GlcNAc(b1-2)Man(a1-6)]Man(b1-4)GlcNAc(b1-4)GlcNAc
# Summary of the method: as §1
# [20] = target: Fuc(a1-2)Gal(b1-4)GlcNAc(b1-3)Gal(b1-4)GlcNAc
# Summary of the method: as §1
# [21] = target: Fuc(a1-2)Gal(b1-4)GlcNAc(b1-3)Gal(b1-4)GlcNAc(b1-3)Gal(b1-4)GlcNAc
# Summary of the method: as §1
# [22] = target: Fuc(a1-2)Gal(b1-4)GlcNAc(b1-3)GalNAc
# Summary of the method: as §1
# [23] = target: Fuc(a1-2)Gal(b1-4)GlcNAc(b1-3)[Fuc(a1-2)Gal(b1-4)GlcNAc(b1-6)]GalNAc
# Summary of the method: as §1
# [24] = target: Fuc(a1-2)Gal(b1-4)GlcNAc6S
# Summary of the method: as §1
binder,measurement,setting,value
B1,glycan array binding signal (z-score),Fuc(a1-2)Gal,-0.111
same,glycan array binding signal (z-score),Fuc(a1-2)Gal(b1-3)GalNAc,-0.336
same,glycan array binding signal (z-score),[1],0.025
same,glycan array binding signal (z-score),[2],-0.458
same,glycan array binding signal (z-score),[3],-0.243
same,glycan array binding signal (z-score),[4],-0.269
same,glycan array binding signal (z-score),[5],-0.163
same,glycan array binding signal (z-score),Fuc(a1-2)Gal(b1-3)GlcNAc,-0.304
same,glycan array binding signal (z-score),[6],0.294
same,glycan array binding signal (z-score),[7],0.213
same,glycan array binding signal (z-score),[8],0.107
same,glycan array binding signal (z-score),[9],-0.327
same,glycan array binding signal (z-score),[10],0.182
same,glycan array binding signal (z-score),[11],-0.602
same,glycan array binding signal (z-score),[12],-0.034
same,glycan array binding signal (z-score),[13],-0.021
same,glycan array binding signal (z-score),[14],0.469
same,glycan array binding signal (z-score),[15],-0.463
same,glycan array binding signal (z-score),[16],-0.315
same,glycan array binding signal (z-score),Fuc(a1-2)Gal(b1-4)Glc,-0.348
same,glycan array binding signal (z-score),Fuc(a1-2)Gal(b1-4)Glc6S,-0.362
same,glycan array binding signal (z-score),Fuc(a1-2)Gal(b1-4)GlcNAc,-0.312
same,glycan array binding signal (z-score),[17],-0.016
same,glycan array binding signal (z-score),[18],-0.652
same,glycan array binding signal (z-score),[19],-0.427
same,glycan array binding signal (z-score),[20],0.238
same,glycan array binding signal (z-score),[21],-0.175
same,glycan array binding signal (z-score),[22],-0.181
same,glycan array binding signal (z-score),[23],0.259
same,glycan array binding signal (z-score),[24],-0.281
